Measurements: the supplement of paper PMC4967469

Compound: NC(=O)[C@@H](CCC(F)(F)F)N(Cc1ccc(-c2ncon2)cc1F)S(=O)(=O)c1ccc(Cl)cc1 [BMS-708163]
Assay: Viability of human cancer cell lines after 72 h of drug (GDSC screen)
Conditions: screen: GDSC drug entry 205; top dose inferred
Protocol: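 Human cancer cell lines in 384-well plates, medium with 10% serum, drug for 72 h over a 256-fold dose range (nine 2-fold or five 4-fold steps up to the top dose). Adherent lines were fixed and stained with the nucleic acid dye Syto60, suspension lines read with resazurin; signal relative to control wells, capped at 0 and 100%. One two-parameter sigmoid per drug and line, fitted in a mixed model over all curves with the slope shared within a line.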

**Q.** How did the AUC turn out when “BICR78 (head and neck, adherent, top dose 10.24 µM)” was run?
**A.** 0.983

**Q.** And the IC50?
**A.** > 10.2 µM

**Q.** For “LU-139 (small cell lung carcinoma, suspension, top dose 10.24 µM)”, which AUC is on record?
**A.** 0.97

**Q.** What about the IC50 of the same cell line?
**A.** > 10.2 µM

**Q.** How did the AUC turn out when “MIA-PaCa-2 (pancreas, adherent, top dose 10.24 µM)” was run?
**A.** 0.985

**Q.** And the IC50?
**A.** > 10.2 µM

**Q.** How did the AUC turn out when “MC116 (B-cell lymphoma, suspension, top dose 10.24 µM)” was run?
**A.** 0.999

**Q.** What about the IC50 of the same cell line?
**A.** > 10.2 µM

**Q.** “NEC8 (testis, adherent, top dose 10.24 µM)” was tested. Which AUC did it give?
**A.** 0.991

**Q.** And the IC50?
**A.** > 10.2 µM

**Q.** How did the AUC turn out when “COR-L321 (lung, suspension, top dose 10.24 µM)” was run?
**A.** 0.989

**Q.** And the IC50?
**A.** > 10.2 µM

**Q.** Which results are given for “SK-MEL-28 (melanoma, adherent, top dose 10.24 µM)”?
**A.** AUC: 0.989; IC50: > 10.2 µM

**Q.** Which AUC does the source give for “DG-75 (Burkitt lymphoma, suspension, top dose 10.24 µM)” here?
**A.** 0.987

**Q.** What about the IC50 of the same cell line?
**A.** > 10.2 µM

**Q.** For “L-363 (myeloma, suspension, top dose 10.24 µM)”, which AUC is on record?
**A.** 0.982

**Q.** And the IC50?
**A.** > 10.2 µM

**Q.** For “BICR10 (head and neck, adherent, top dose 10.24 µM)”, which AUC is on record?
**A.** 0.985

**Q.** What about the IC50 of the same cell line?
**A.** > 10.2 µM

**Q.** For “SF539 (glioma, adherent, top dose 10.24 µM)”, which AUC is on record?
**A.** 0.99

**Q.** What about the IC50 of the same cell line?
**A.** > 10.2 µM

**Q.** “OCI-M1 (acute myeloid leukaemia, suspension, top dose 10.24 µM)” was tested. Which AUC did it give?
**A.** 0.989

**Q.** And the IC50?
**A.** > 10.2 µM

**Q.** What does the source list for “G-401 (kidney, adherent, top dose 10.24 µM)”?
**A.** AUC: 0.981; IC50: > 10.2 µM

**Q.** What does the source list for “A498 (kidney, adherent, top dose 10.24 µM)”?
**A.** AUC: 0.978; IC50: > 10.2 µM

**Q.** What does the source list for “NCI-H1573 (lung adenocarcinoma, adherent, top dose 10.24 µM)”?
**A.** AUC: 0.99; IC50: > 10.2 µM

**Q.** With “OCUB-M (breast, adherent, top dose 10.24 µM)” as the cell line, how does the AUC read?
**A.** 0.971

**Q.** What about the IC50 of the same cell line?
**A.** > 10.2 µM

**Q.** “Hey (ovary, adherent, top dose 10.24 µM)” was tested. Which AUC did it give?
**A.** 0.988

**Q.** And the IC50?
**A.** > 10.2 µM

**Q.** For “OVISE (ovary, adherent, top dose 10.24 µM)”, which AUC is on record?
**A.** 0.958

**Q.** What about the IC50 of the same cell line?
**A.** > 10.2 µM

**Q.** How did the AUC turn out when “KM-H2 (Hodgkin lymphoma, suspension, top dose 10.24 µM)” was run?
**A.** 0.993

**Q.** And the IC50?
**A.** > 10.2 µM

**Q.** “RS4-11 (leukaemia, suspension, top dose 10.24 µM)” was tested. Which AUC did it give?
**A.** 0.986

**Q.** And the IC50?
**A.** > 10.2 µM

**Q.** Which AUC does the source give for “Hs-578-T (breast, adherent, top dose 10.24 µM)” here?
**A.** 0.987

**Q.** And the IC50?
**A.** > 10.2 µM

**Q.** What does the source list for “SK-MEL-3 (melanoma, adherent, top dose 10.24 µM)”?
**A.** AUC: 0.983; IC50: > 10.2 µM

**Q.** Which AUC does the source give for “M14 (melanoma, adherent, top dose 10.24 µM)” here?
**A.** 0.987

**Q.** What about the IC50 of the same cell line?
**A.** > 10.2 µM

**Q.** How did the AUC turn out when “MC-IXC (neuroblastoma, adherent, top dose 10.24 µM)” was run?
**A.** 0.996

**Q.** What about the IC50 of the same cell line?
**A.** > 10.2 µM

**Q.** How did the AUC turn out when “MC-CAR (haematopoietic neoplasm, suspension, top dose 10.24 µM)” was run?
**A.** 0.964

**Q.** And the IC50?
**A.** > 10.2 µM

**Q.** “AsPC-1 (pancreas, adherent, top dose 10.24 µM)” was tested. Which AUC did it give?
**A.** 0.963

**Q.** And the IC50?
**A.** > 10.2 µM

**Q.** Which results are given for “HCC1143 (breast, adherent, top dose 10.24 µM)”?
**A.** AUC: 0.98; IC50: > 10.2 µM

**Q.** Which results are given for “KELLY (neuroblastoma, adherent, top dose 10.24 µM)”?
**A.** AUC: 0.989; IC50: > 10.2 µM

**Q.** For “COLO-679 (melanoma, adherent, top dose 10.24 µM)”, which AUC is on record?
**A.** 0.98

**Q.** And the IC50?
**A.** > 10.2 µM

**Q.** With “KMRC-1 (kidney, adherent, top dose 10.24 µM)” as the cell line, how does the AUC read?
**A.** 0.987

**Q.** And the IC50?
**A.** > 10.2 µM

**Q.** “HT-1080 (fibrosarcoma, adherent, top dose 10.24 µM)” was tested. Which AUC did it give?
**A.** 0.989

**Q.** And the IC50?
**A.** > 10.2 µM

Same assay, conditions: top dose 5 µM; screen: GDSC drug entry 1072; top dose inferred

**Q.** Which AUC does the source give for “MHH-CALL-2 (B-cell leukaemia, suspension)” here?
**A.** 0.995

**Q.** What about the IC50 of the same cell line?
**A.** > 5 µM

**Q.** Which AUC does the source give for “NCI-H1341 (small cell lung carcinoma, suspension)” here?
**A.** 0.973

**Q.** What about the IC50 of the same cell line?
**A.** > 5 µM

**Q.** With SNU-61 (large intestine, adherent) as the cell line, how does the AUC read?
**A.** 0.985

**Q.** And the IC50?
**A.** > 5 µM

**Q.** How did the AUC turn out when Hs746T (stomach, adherent) was run?
**A.** 0.958

**Q.** What about the IC50 of the same cell line?
**A.** > 5 µM

**Q.** How did the AUC turn out when QGP-1 (pancreas, adherent) was run?
**A.** 0.935

**Q.** What about the IC50 of the same cell line?
**A.** > 5 µM

**Q.** How did the AUC turn out when YH-13 (glioma, adherent) was run?
**A.** 0.985

**Q.** And the IC50?
**A.** > 5 µM

**Q.** What does the source list for KMS-11 (myeloma, suspension)?
**A.** AUC: 0.976; IC50: > 5 µM

**Q.** What does the source list for OCUM-1 (stomach, adherent)?
**A.** AUC: 0.955; IC50: > 5 µM

**Q.** With OC-314 (ovary, adherent) as the cell line, how does the AUC read?
**A.** 0.983

**Q.** And the IC50?
**A.** > 5 µM

**Q.** What does the source list for FLO-1 (oesophagus, adherent)?
**A.** AUC: 0.976; IC50: > 5 µM

Lines with a small IC50 respond at low doses; where the fit passes the top or lowest dose, that dose stands as a limit. AUC sums up the same curve from the lowest dose to the 256-fold higher top dose; it is 1 without any effect and falls as sensitivity rises. Where the top dose is marked as inferred, it is not printed in the source and was worked back from the curve model. Drugs with an entry number were screened twice under separate entries, and the two screens often disagree.
